The values that follow come from publication PMC4288184.

Experiment [1] concerns the target T1, GST-hHMGA2 N1 (aa 1–35) (human) (UniProt P52926).
T1 sequence: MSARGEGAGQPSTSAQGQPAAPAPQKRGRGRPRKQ
As to the kind of experiment: pull-down; purified GST-HMGA2 fusion proteins as bait, cell extracts from MDA-MB-231 and MCF10CA1a breast cancer cells, endogenous CTCF (Supplementary Figure S4B); only the target purified.

Experiment [2] concerns the target T2, GST-hHMGA2 ΔC (aa 1–83) (human) (UniProt P52926).
T2 sequence: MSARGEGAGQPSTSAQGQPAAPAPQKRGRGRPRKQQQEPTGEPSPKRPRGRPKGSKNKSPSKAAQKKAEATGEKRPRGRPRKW
The description is as above.

Experiment [3] addresses T3, GST-hHMGA2 C (aa 94–109) (human) (UniProt P52926).
T3 sequence: QEETEETSSQESAEED
Described as above.

The target in experiment [4] is T4, GST-hHMGA2 N2 (aa 1–25) (human) (UniProt P52926).
T4 sequence: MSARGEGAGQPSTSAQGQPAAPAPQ
Described as above.

For experiment [5], the target named is T1, GST-hHMGA2 N1 (aa 1–35) (human). The experiment in a line: pull-down; purified GST-HMGA2 fusion proteins as bait, HEK293T cell extracts, immunoblot for endogenous CTCF; only the target purified.
Experiment [6] deals with T2, GST-hHMGA2 ΔC (aa 1–83) (human). Described as above.
The target in experiment [7] is T3, GST-hHMGA2 C (aa 94–109) (human). The experiment is described as above.
The target in experiment [8] is T4, GST-hHMGA2 N2 (aa 1–25) (human). The description is as above.

No constants are given. Whether binding was seen depends on the method and setting. Binding seen in cells or lysates may run through a third protein. Some entries that bind do so weakly or less than the wild type. Tags and fused reporters may be left off the sequences shown.

B1: CCCTC-binding factor (CTCF), endogenous in MCF10CA1a cells (protein, UniProt P49711 1-727)
chain: MEGDAVEAIVEESETFIKGKERKTYQRRREGGQEEDACHLPQNQTDGGEVVQDVNSSVQMVMMEQLDPTLLQMKTEVMEGTVAPEAEAAVDDTQIITLQVVNMEEQPINIGELQLVQVPVPVTVPVATTSVEELQGAYENEVSKEGLAESEPMICHTLPLPEGFQVVKVGANGEVETLEQGELPPQEDPSWQKDPDYQPPAKKTKKTKKSKLRYTEEGKDVDVSVYDFEEEQQEGLLSEVNAEKVVGNMKPPKPTKIKKKGVKKTFQCELCSYTCPRRSNLDRHMKSHTDERPHKCHLCGRAFRTVTLLRNHLNTHTGTRPHKCPDCDMAFVTSGELVRHRRYKHTHEKPFKCSMCDYASVEVSKLKRHIRSHTGERPFQCSLCSYASRDTYKLKRHMRTHSGEKPYECYICHARFTQSGTMKMHILQKHTENVAKFHCPHCDTVIARKSDLGVHLRKQHSYIEQGKKCRYCDAVFHERYALIQHQKSHKNEKRFKCDQCDYACRQERHMIMHKRTHTGEKPYACSHCDKTFRQKQLLDMHFKRYHDPNFVPAAFVCSKCGKTFTRRNTMARHADNCAGPDGVEGENGGETKKSKRGRKRKMRSKKEDSSDSENAEPDLDDNEDEEEPAVEIEPEPEPQPVTPAPPPAKKRRGRPPGRTNQPKQNQPTAIIQVEDQNTGAIENIIVEVKKEPDAEPAEGEEEEAQPAATDAPNGDLTPEMILSMMDR
As to B1, the binding result in experiment [1] is “binds”; in experiment [2] it was “binds”; in experiment [3], “no binding”; in experiment [4] it was “no binding”.

B2: CCCTC-binding factor (CTCF), endogenous in HEK293T cells (protein, UniProt P49711 1-727)
chain: MEGDAVEAIVEESETFIKGKERKTYQRRREGGQEEDACHLPQNQTDGGEVVQDVNSSVQMVMMEQLDPTLLQMKTEVMEGTVAPEAEAAVDDTQIITLQVVNMEEQPINIGELQLVQVPVPVTVPVATTSVEELQGAYENEVSKEGLAESEPMICHTLPLPEGFQVVKVGANGEVETLEQGELPPQEDPSWQKDPDYQPPAKKTKKTKKSKLRYTEEGKDVDVSVYDFEEEQQEGLLSEVNAEKVVGNMKPPKPTKIKKKGVKKTFQCELCSYTCPRRSNLDRHMKSHTDERPHKCHLCGRAFRTVTLLRNHLNTHTGTRPHKCPDCDMAFVTSGELVRHRRYKHTHEKPFKCSMCDYASVEVSKLKRHIRSHTGERPFQCSLCSYASRDTYKLKRHMRTHSGEKPYECYICHARFTQSGTMKMHILQKHTENVAKFHCPHCDTVIARKSDLGVHLRKQHSYIEQGKKCRYCDAVFHERYALIQHQKSHKNEKRFKCDQCDYACRQERHMIMHKRTHTGEKPYACSHCDKTFRQKQLLDMHFKRYHDPNFVPAAFVCSKCGKTFTRRNTMARHADNCAGPDGVEGENGGETKKSKRGRKRKMRSKKEDSSDSENAEPDLDDNEDEEEPAVEIEPEPEPQPVTPAPPPAKKRRGRPPGRTNQPKQNQPTAIIQVEDQNTGAIENIIVEVKKEPDAEPAEGEEEEAQPAATDAPNGDLTPEMILSMMDR
B2: the binding entry is listed as “binds weakly” in experiment [5], “binds” in experiment [6], “no binding” in experiment [7] and “no binding” in experiment [8].

B3: CCCTC-binding factor (CTCF), endogenous in MDA-MB-231 cells (protein, UniProt P49711 1-727)
chain: MEGDAVEAIVEESETFIKGKERKTYQRRREGGQEEDACHLPQNQTDGGEVVQDVNSSVQMVMMEQLDPTLLQMKTEVMEGTVAPEAEAAVDDTQIITLQVVNMEEQPINIGELQLVQVPVPVTVPVATTSVEELQGAYENEVSKEGLAESEPMICHTLPLPEGFQVVKVGANGEVETLEQGELPPQEDPSWQKDPDYQPPAKKTKKTKKSKLRYTEEGKDVDVSVYDFEEEQQEGLLSEVNAEKVVGNMKPPKPTKIKKKGVKKTFQCELCSYTCPRRSNLDRHMKSHTDERPHKCHLCGRAFRTVTLLRNHLNTHTGTRPHKCPDCDMAFVTSGELVRHRRYKHTHEKPFKCSMCDYASVEVSKLKRHIRSHTGERPFQCSLCSYASRDTYKLKRHMRTHSGEKPYECYICHARFTQSGTMKMHILQKHTENVAKFHCPHCDTVIARKSDLGVHLRKQHSYIEQGKKCRYCDAVFHERYALIQHQKSHKNEKRFKCDQCDYACRQERHMIMHKRTHTGEKPYACSHCDKTFRQKQLLDMHFKRYHDPNFVPAAFVCSKCGKTFTRRNTMARHADNCAGPDGVEGENGGETKKSKRGRKRKMRSKKEDSSDSENAEPDLDDNEDEEEPAVEIEPEPEPQPVTPAPPPAKKRRGRPPGRTNQPKQNQPTAIIQVEDQNTGAIENIIVEVKKEPDAEPAEGEEEEAQPAATDAPNGDLTPEMILSMMDR
B3: the binding entry is “binds” in experiment [1], “binds” in experiment [2], “no binding” in experiment [3] and “no binding” in experiment [4].
